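Following 48 hours of exposure in 96-well plates, responses at five concentrations were used to interpolate endpoints linearly. Here, GI50 denotes the concentration required for 50% inhibition of growth. Definition used: TGI = concentration required for complete inhibition of growth.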
System: NCI-H322M lung
Test: DTP human tumour cell line panel, 48 h

Compared with `CN[C@@H](C)C(=O)N[C@H](C(=O)N1CCC[C@H]1C(=O)Nc1snnc1-c1ccccc1)C1CCCCC1`, `Fc1ccc2c(c1)C1=NN(c3ccccc3)C(F)C1CO2` (stereo not drawn) is 5.6-fold lower in GI50: 59 µM for the first, 10.5 µM for the second.

Compared with `COc1cc(C(=O)O[C@H](C(=O)NCCCCCNC(=O)[C@@H](OC(=O)c2cc(OC)cc3c(C)cccc23)[C@]2(C)CO2)[C@]2(C)CO2)c2cccc(C)c2c1`, `COc1ccc2c(c1)c(=O)oc1cc(OC/C(C)=N\O)ccc12` is higher in GI50: 0.971 µM for the first, > 100 µM for the second.

Going from `CC(C)(C)OC(=O)N1CCN(CCn2cc(C(F)(F)F)c3c(Cl)ncnc32)CC1` to `COc1ccc2cc(C(=O)/C=C/c3ccc(Cl)cc3Cl)ccc2c1`, the GI50 rises from 1.87 µM to 31.4 µM (17-fold).

Compared with `COc1ccc(/C(COc2ccc3c(=O)cc(-c4ccccc4)oc3c2)=N\O)cc1`, `COc1cc(/C=C/C(=O)c2cccc(Nc3nc(Nc4ccccc4)nc(Nc4ccccc4)n3)c2)cc(OC)c1OC` is higher in GI50: 5.56 µM for the first, > 69.5 µM for the second.

Compared with `C=C1CCC2C3(C)COC(c4ccc(N(C)C)cc4)OC3CCC2(C)C1C/C=C1/C(=O)OCC1O` (stereo not drawn), `O=C(CCCCCCCCC(=O)N/N=C\c1ccccc1O)N/N=C\c1ccccc1O` is 38-fold lower in GI50: 9.18 µM for the first, 0.239 µM for the second.

`CN[C@@H](C)C(=O)N[C@H](C(=O)N1CCC[C@H]1C(=O)Nc1snnc1-c1ccccc1)C1CCCCC1` and `O=C(NC1=NCC(CN2CCN(c3ccccc3)CC2)O1)Nc1ccccc1` (stereo not drawn) cannot be ordered by TGI: > 100 µM for the first, > 100 µM for the second.

First: CNC1=C(C)C(=O)C(=O)C([C@H](C)CCC=C(C)C)=C1O
Second: C=CCNC1=C2C[C@@H](C)C[C@@H](OC)[C@H](OC(=O)CCN)[C@H](C)/C=C(\C)[C@@H](OC(N)=O)[C@H](OC)/C=C\C=C(/C)C(=O)NC(=CC1=O)C2=O
The TGI of the first is higher: > 100 µM for the first, 20.3 µM for the second.

Compared with `COc1cc(C(=O)O[C@H](C(=O)NCCCCCNC(=O)[C@@H](OC(=O)c2cc(OC)cc3c(C)cccc23)[C@]2(C)CO2)[C@]2(C)CO2)c2cccc(C)c2c1`, `COC(=O)C1(C(=O)OC)Cc2ccc(OC)cc2C2=C1C(=O)c1ccccc1C2=O` is 15-fold higher in TGI: 2.59 µM for the first, 39 µM for the second.

First: Cc1ccc(S(=O)(=O)n2cc(-c3cc(C(F)(F)F)ccn3)c3cc(Br)ccc32)cc1
Second: O=C(O)c1nc2cc(C(F)(F)F)ccc2nc1Nc1ccc(F)cc1
The TGI of the first is lower: 78.4 µM for the first, > 100 µM for the second.

`O=C(O)C(/C=C/c1ccccc1)c1ccccc1` (stereo not drawn) and `CN1C(=Nc2ccccc2)SC1=Nc1ccccc1` cannot be ordered by TGI: > 100 µM for the first, > 100 µM for the second.

`O=C1CCCCC/C1=C\c1cccc(Cl)c1` and `O=C1c2cc(Cl)ccc2-n2cnnc2C2CSCN12` (stereo not drawn) cannot be ordered by TGI: > 100 µM for the first, > 100 µM for the second.

`CCc1cc(C(=O)OC)cn1C(=N)c1ccc(Cl)cc1` and `COc1ccc2cc(C(=O)/C=C/c3ccc(Cl)cc3Cl)ccc2c1` cannot be ordered by TGI: > 100 µM for the first, > 100 µM for the second.

`C=CCN1C(=O)/C(=C/c2ccc(OC)cc2)N=C1SC/C=C/C` and `COc1ccc2c(c1)c(=O)oc1cc(OC/C(C)=N\O)ccc12` cannot be ordered by TGI: > 100 µM for the first, > 100 µM for the second.

Compared with `O=C(Nc1ccc(Cl)cc1)c1cc2cc(N=Nc3ccccc3Cl)ccc2oc1=O`, `COc1ccc(/C(COc2ccc3c(=O)cc(-c4ccccc4)oc3c2)=N\O)cc1` is 2.2-fold lower in TGI: 54 µM for the first, 24.5 µM for the second.

Compared with `Cn1c2ccccc2n2c(N=O)c(-c3ccccc3)nc12`, `CCc1n[nH]c(=O)n1/N=C/c1c(O)ccc2ccccc12` is higher in TGI: 61.3 µM for the first, > 100 µM for the second.

First: CC(C)(C)OC(=O)N1CCN(CCn2cc(C(F)(F)F)c3c(Cl)ncnc32)CC1
Second: CC(C)Cn1cnc2c(NCC(C)O)nc3ccccc3c21 (stereo not drawn)
The TGI of the first is lower: 3.77 µM for the first, > 100 µM for the second.

`COc1cc2c(c(O)c1OC)-c1c(cc(OC)c(OC)c1OC)CC(C)C(C)C2` (stereo not drawn) and `COc1cc([C@@H]2OC[C@@H]3C(c4cc(OC)c5c(c4)OCO5)OC[C@@H]32)cc(OC)c1OC` (stereo partly drawn) cannot be ordered by TGI: > 100 µM for the first, > 100 µM for the second.

`CNc1ncnc2c1ncn2C1C=CC(COS(N)(=O)=O)C1` (stereo not drawn) and `CCOC(=O)c1cnc2oc3ccc(O)cc3c2c1C` cannot be ordered by TGI: > 100 µM for the first, > 100 µM for the second.

`COC(=O)[C@@H]1CN(C(C)=O)C(=O)N1` and `CC(=O)CC(=O)OC1CC(C)CCC1C(C)C` (stereo not drawn) cannot be ordered by TGI: > 100 µM for the first, > 100 µM for the second.

Going from `NC(=O)N/N=C(\CC1OC(=O)c2ccccc21)c1ccco1` (stereo not drawn) to `O=C(CCCCCCCCC(=O)N/N=C\c1ccccc1O)N/N=C\c1ccccc1O`, the TGI falls from > 100 µM to 30.2 µM.

`COc1ccc(Br)c(N/N=C2\CCCNC2=O)c1` and `Cc1ccc(Nc2n[nH]c(=S)s2)cc1C` cannot be ordered by TGI: > 100 µM for the first, > 100 µM for the second.

Going from `COc1cc(/C=C/C(=O)c2cccc(Nc3nc(Nc4ccccc4)nc(Nc4ccccc4)n3)c2)cc(OC)c1OC` to `CCS(CC)(CC)CC1CCCC2=CCC(P(=O)(c3ccccc3)c3ccccc3)CC21` (stereo not drawn), the TGI falls from > 100 µM to 24.4 µM.

Going from `C=C1CCC2C3(C)COC(c4ccc(N(C)C)cc4)OC3CCC2(C)C1C/C=C1/C(=O)OCC1O` (stereo not drawn) to `O=C1CCC2C(O)c3cc4c(cc3C(c3ccc5c(c3)OCO5)N12)OCO4` (stereo not drawn), the TGI rises from 23.2 µM to > 100 µM.

`CN1CCc2[nH]c3ccccc3c2C1` and `Cn1cc2ccccc2c1-c1nc(F)nc(F)n1` cannot be ordered by TGI: > 100 µM for the first, > 100 µM for the second.

`Cc1ccc(S(=O)(=O)OC2CSS(=O)CC2OS(=O)(=O)c2ccc(C)cc2)cc1` (stereo not drawn) and `Fc1ccc2c(c1)C1=NN(c3ccccc3)C(F)C1CO2` (stereo not drawn) are within 1.5-fold of each other in TGI: 42.3 µM for the first, 32.2 µM for the second.

Compared with `Nc1ncnn2c(C3OC(CO)C(O)C3O)ccc12` (stereo not drawn), `Oc1ccccc1/C=C/c1csnn1` is higher in TGI: 0.595 µM for the first, > 100 µM for the second.

For `CC(CCN)(CCN)[N+](=O)[O-]`, the TGI was > 100 µM.

— PubChem BioAssay (NCI)
